# Laboratory results from ChEMBL document CHEMBL1201862, “PubChem BioAssay data set” (2004).
#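 Grown in 96-well plates, cells were treated for 48 hours with each compound at five concentrations. Insufficient inhibition: endpoint recorded as highest concentration tested. The concentration for 50% growth inhibition is given as GI50.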 The source made the active and inactive calls. No stated cut-off is given here; in the data, active = GI50 up to about 1.1 µM and inactive = higher.
# Test system: NCI-H322M
# Test: NCI tumour cell line growth inhibition, 48 h
row,Structure (SMILES),GI50
1,Sc1nnc(C(c2ccccc2)c2ccccc2)[nH]1,inactive: > 100 µM
2,CCc1nnc(CC)n1-n1c(Cc2ccccc2)n[nH]c1=O,inactive: > 100 µM
3,Nc1n2nc(-c3ccccc3)sc2n[n+]1CC(=O)c1ccccc1,inactive: 14.1 µM
4,O=C(/C=C/c1ccccc1)Oc1ccc(C(=O)/C=C/c2ccc(Cl)cc2)cc1,inactive: 54.8 µM
5,Cc1ccc(S(=O)(=O)N2CCN(S(=O)(=O)c3ccc(C)cc3)CCN(S(=O)(=O)c3ccc(C)cc3)Cc3cc(C#N)c(C#N)cc3CN(S(=O)(=O)c3ccc(C)cc3)CC2)cc1,inactive: > 100 µM
6,O=[N+]([O-])c1ccc(-c2cnc3ccccn23)cc1,inactive: > 100 µM
7,c1ccc(C(/C(=N/c2ccc(Cc3ccc(/N=C(\C(c4ccccc4)c4ccccc4)N4CC4)cc3)cc2)N2CC2)c2ccccc2)cc1,inactive: 17.9 µM
8,COC(=O)CCCc1ccc2c(c1)CC1(C2)Cc2cc3c(cc2C1)CCCC3,inactive: > 100 µM
9,CCOC(=O)c1c(SCCO)n(-c2ccccc2)c(=S)n(-c2ccccc2)c1=O,inactive: > 100 µM
10,Cc1ccc(C)c(NC(=O)C(=O)C2C(=O)N(c3ccccc3)N=C2N)c1 (centres undefined),inactive: > 100 µM
11,COc1cccc(Nc2nc(-c3cccs3)nc3ccc(Br)cc23)c1,inactive: 75 µM
12,O=C1C=C(C2=C(C3=CC(=O)c4ccccc4C3=O)C(=O)c3ccccc3C2=O)C(=O)c2ccccc21,inactive: 9.1 µM
13,CCOC(OCC)N1C(=O)C2(C(OCC)OCC)CC3C(OC(=O)N3N)c3cccc1c32 (centres undefined),inactive: > 100 µM
14,Cc1cc(N(C)c2ccccc2)nc(N(C)c2ccccc2)n1,inactive: 39.4 µM
15,CN(C)c1nc2n(CCO)c(-c3ccccc3)c(-c3ccccc3)nc-2c(=O)n1,inactive: > 100 µM
16,Cc1nc2nnc(CCCCCCCCc3nnc4nc(C)[nH]n34)n2[nH]1,inactive: > 100 µM
17,Cc1ccc(Cl)c2c1NC(=O)/C2=N\Nc1ccccc1[N+](=O)[O-],inactive: 78 µM
18,COc1ccc(Cn2c(=O)c(OS(=O)(=O)C(F)(F)F)c(C)c3cc4ccccc4cc32)cc1,inactive: > 100 µM
19,CC(=O)Nc1cc2nc3n(c2cc1C)CCC3OC(C)=O (centres undefined),inactive: > 100 µM
20,O=C1NC2CCC(C2)C1c1ccccc1 (centres undefined),inactive: > 100 µM
21,Nc1c([N+](=O)[O-])cc2c3c(cccc13)CC2,inactive: 53.8 µM
22,C=CCc1cccc2cc(C(=O)NCc3ccccc3)c(=N)oc12,inactive: 25.5 µM

row,Structure (SMILES),GI50
1,COc1ccc(Nc2nc3ccccc3nc2C(=O)O)cc1,inactive: > 100 µM
2,O=[N+]([O-])c1ccc(-n2nc3ccc4nonc4c3n2)cc1,inactive: 46.9 µM
3,C/C(=N\NS(=O)(=O)c1ccc(C)cc1)c1cc2ccccc2n1C,inactive: 45.5 µM
4,CN(C)c1ccc(/C=N/c2nc3cc4sc(/N=C/c5ccc(N(C)C)cc5)nc4cc3s2)cc1,inactive: > 100 µM
5,CC1C(/C=C/c2ccoc2)ON2CCCC12 (centres undefined),inactive: > 100 µM
6,O=C(CCCC1Cc2ccccc2C1=O)c1ccccc1 (centres undefined),inactive: > 100 µM
7,CCOc1ccccc1NC(=O)C(=O)C(C(=O)c1ccc2ccccc2c1)C1OC(=O)c2ccccc21 (centres undefined),inactive: 14.3 µM
8,CCOC(=O)CCC(C(=O)OCC)n1nnc2ccc(Nc3c(C)[n+]([O-])c4ccc(Cl)cc4[n+]3[O-])cc21 (centres undefined),inactive: 64.9 µM
9,CN(C)c1ccc(/C=C2\N=C(NN)NC2=O)cc1,inactive: 65.5 µM
10,O=P1(C(O)c2ccccc2)N(Cc2ccccc2)[C@@H]2CCCC[C@H]2N1Cc1ccccc1 (some centres undefined),inactive: 31 µM
11,Cc1ccc(C2=NOC(=O)[C@@H]3CCCC[C@@H]23)cc1,inactive: > 100 µM
12,C[n+]1[se]c2ccccc2c1Cl,inactive: 38.8 µM
13,O=C(O)c1cccc(/C=C/c2ccccc2)c1,inactive: > 100 µM
14,O=C1NC(=O)C(c2c[nH]c3ccccc23)=C1c1cnc[nH]1,inactive: > 100 µM
15,OC(c1cc(C(O)(C(F)(F)F)C(F)(F)F)ncn1)(C(F)(F)F)C(F)(F)F,inactive: > 10 µM
16,CC(=O)/C=C1\CC(=O)N(C)c2ccccc2N1,inactive: > 100 µM
17,N#Cc1c(NC(=S)Nc2ccc(Cl)cc2)sc2c1CCCC2,inactive: > 100 µM
18,CCOc1cc2c(cc1O)C(=O)C[C@@H]1[C@@H]2CC[C@]2(C)[C@@H](O)CC[C@@H]12,active: 0.65 µM
19,O=C(Nc1ccccc1C(=O)O)C(=O)C(C(=O)c1ccccc1-c1ccccc1)C1OC(=O)c2ccccc21 (centres undefined),inactive: 14.1 µM
20,CC(=O)NC1C(OC(C)C(=O)NC(C)C(=O)NC(CCC(=O)NCCCCCNc2ccc([N+](=O)[O-])c3[nH]c4ccccc4c(=O)c23)C(N)=O)C(O)C(CO)OC1(C)OCc1ccccc1 (centres undefined),inactive: > 100 µM
21,C=C1CCC2(C(C)=O)COC1(C)O2 (centres undefined),inactive: > 100 µM
22,O=C1NC2OC(CO)C(O)C(O)C2O1 (centres undefined),inactive: > 100 µM

row,Structure (SMILES),GI50
1,COc1ccc(NC(=O)C2=CC(=O)c3ccc(O)cc3C2=O)c(OC)c1,inactive: > 100 µM
2,CCOC(=O)CC1CCN(C(=O)c2ccccc2)C2Cc3c([nH]c4ccccc34)C12C[N+](=O)[O-] (centres undefined),inactive: > 100 µM
3,CN(C)CCC(=O)[C@@]1(O)CC[C@H]2[C@@H]3CC=C4C[C@@H](O)CC[C@]4(C)[C@H]3CC[C@@]21C,inactive: 28.7 µM
4,N=C(N)NS(=O)(=O)c1ccc(NC(=O)c2cccc3c(N)c4ccccc4nc23)cc1,inactive: 53.7 µM
5,COc1ccc(/C=C(/c2ccccc2)c2c(C)cc(C)c(/C(=C\c3ccc(OC)cc3)c3ccccc3)c2/N=N/c2cc(C)cc(C)c2)cc1,inactive: 52 µM
6,CCOC(=O)c1c(-c2ccc(OC)cc2)c(C#N)c(=S)n(C2OC(CO)C(O)C(O)C2O)c1-c1ccccc1 (centres undefined),inactive: > 100 µM
7,COc1c(C)cc2c(C(C)C)c(O)c(O)c(C=O)c2c1O,inactive: 22.7 µM
8,Cc1cc(N(CCC#N)CCC#N)ccc1/C=C\C(=O)Nc1ccccc1,inactive: > 100 µM
9,CC(=O)O[C@@]12CO[C@@H]1CC(O)[C@@]1(C)C(=O)[C@H](O)C3=C(C)C(O)C[C@@](O)(C(OC(=O)c4ccccc4)C12)C3(C)C (some centres undefined),inactive: 4.21 µM
10,O=C1OC2CC=CC1C2 (centres undefined),inactive: > 100 µM
11,CO/C(=C/C(=O)C(Cl)(Cl)Cl)CC/C(=C\C(=O)C(Cl)(Cl)Cl)OC,inactive: 29.7 µM
12,N#Cc1c(N)c(C(=O)O)nn(-c2cccc(C(F)(F)F)c2)c1=O,inactive: > 100 µM
13,Cc1cccc2c1C(=O)C(C1OC(=O)c3ccccc31)C2 (centres undefined),inactive: > 100 µM
14,CCOC(=O)c1cn2c(n1)sc1cc(OC)ccc12,inactive: 70 µM
15,CC1=Cc2cccc(C)c2C(=O)C1=O [O-HIBISCANONE],inactive: 22.9 µM
16,Cc1ccc2nc(NC(=O)C(=O)C(C#N)c3nc4ccccc4s3)sc2c1 (centres undefined),inactive: 37.8 µM
17,O=C(NNC(=O)c1nsc2ccccc12)c1ccc(Cl)cc1,inactive: 19.4 µM
18,O=C(CSCC(=O)N/N=C\c1cc(Br)cc(Br)c1O)N/N=C\c1cc(Br)cc(Br)c1O,inactive: 6.73 µM
19,CCOC(=O)/C=C(/C(=O)OCC)n1cc(Cl)c(=O)n(CC(=O)OCC)c1=O,inactive: > 25 µM
20,CSCCC(NC(=O)OC(C)(C)C)C(=O)NCCNc1ccc(NCCNC(=O)C(CCSC)NC(=O)OC(C)(C)C)c2c1C(=O)c1ccccc1C2=O (centres undefined),inactive: 13.7 µM
